As a reminder, the Kd is the equilibrium constant for the complex coming apart. Low readings indicate a tighter complex, high ones a looser complex. By koff is commonly meant a measure of how fast the partners let go of each other. Higher therefore signals fast dissociation. In general, kon refers to a measure of how fast the partners come together. By IC50 is commonly meant the concentration that inhibits the measured activity by half. Read a low IC50 as greater potency. Broadly, the EC50 is the concentration that produces a half-maximal response.

Where two headings read alike, the source gives them in different places.

The target in assay [1] is T1, PD-L1-his (QPP09) (human, UniProt Q9NZQ7 fragment, limits assumed).
T1 construct: also called human PD-L1; human PD-L1 recombinant protein
The assay can be described thus: SPR, Biacore 8K. For orientation: SPR reads the build-up and loss of mass on a sensor chip optically.

Assay [2] addresses T2, PD-L1-mouse Fc protein (human, UniProt Q9NZQ7 fragment, limits assumed). The assay can be described thus: blocking ELISA: QP1138 (PD1-FC) coated, PDL1-mouse FC mixed with the antibody, HRP anti-mouse IgG; blocked partner: PD-1; unit from the x axis Log(Conc.(nM)). (In general: An ELISA detects its analyte on a solid surface through an enzyme-linked reagent.)
For assay [3], the target named is T1, PD-L1-his (QPP09). The assay can be described thus: SPR, Biacore 8K. This is another data set of the same source.
T1 sequence (Q9NZQ7 19-239 limits assumed): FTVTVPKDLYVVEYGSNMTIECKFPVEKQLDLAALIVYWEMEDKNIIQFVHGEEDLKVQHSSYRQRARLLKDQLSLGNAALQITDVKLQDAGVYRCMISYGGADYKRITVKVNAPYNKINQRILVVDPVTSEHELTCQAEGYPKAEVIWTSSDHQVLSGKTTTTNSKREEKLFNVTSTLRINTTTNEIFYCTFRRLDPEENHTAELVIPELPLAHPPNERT
Assay [4] addresses T3, human PD-L1 on HCC827 cells (human, UniProt Q9NZQ7).
T3 construct: whole, on cells; also called HCC827 cells naturally expressing human PD-L1
The assay can be described thus: FACS on HCC827 cells.

The target of assay [5] is T2, PD-L1-mouse Fc protein. The assay can be described thus: competitive ELISA, CD80 coated, PD-L1-mouse Fc.
T2 sequence (Q9NZQ7 19-239 limits assumed): as above
Assay [6] addresses T2, PD-L1-mouse Fc protein. As to the kind of experiment: competitive ELISA, PD-1 coated, PD-L1-mouse Fc.

B1: QP509 (Fc fusion)
chain: EVQLLESGGGLVQPGGSLRLSCAASGFTLDDYAIGWFRQAPGKGREGVSCISKSGETTFFVESVKDRFTISRDNSKNTLYLQMNSLRAEDTAVYYCATGSWCTVGSMSRQFYRQFFHSWGQGTLVTVSS[no letters for human IgG1 Fc with C220S L234A L235A K338A (EU numbers)]
notes: Anti-PD-L1 nanobody VHH fused to the N-terminus of FC; also called PD-L1VHH-FC
In assay [1], B1 displayed an equilibrium dissociation constant (Kd) of 0.261 nM, an off-rate (koff) of 0.00043 s⁻¹ and a kon of 1.65e+06 M⁻¹ s⁻¹. The molecule further came in with a 50% inhibitory concentration (IC50) in assay [2] of 0.338 nM.

B2: QP3447 (Fc fusion)
chain: [no letters for human IgG1 Fc with C220S L234A L235A K338A (EU numbers)]GGGSGGGGSGGGGSGGGGSEVQLLESGGGLVQPGGSLRLSCAASGFTLDDYAIGWFRQAPGKGREGVSCISKSGETTFFVESVKDRFTISRDNSKNTLYLQMNSLRAEDTAVYYCATGSWCTVGSMSRQFYRQFFHSWGQGTLVTVSS
notes: Anti-PD-L1 nanobody VHH fused to the C-terminus of FC; also called FC-PD-L1VHH; PD-L1 single component control
For the molecule B2, the Kd in assay [1] and in assay [3] was 0.479 nM in each case. Further, the koff in assay [1] and in assay [3] was 0.000411 s⁻¹ in each case. The kon in assay [1] and in assay [3] was 858000 M⁻¹ s⁻¹ throughout. It took 0.119 nM to reach a half-maximal effect in assay [4] (EC50). The IC50 in assay [5] turned out to be 0.746 nM; in assay [6] it was 0.951 nM; in assay [2], 0.445 nM.

(Values after patent US20250326840A1 (QURE BIOTECHNOLOGY SHANGHAI, published 2025).)
